# Assay results from patent US20210355187A1, “GLP-2 FUSION POLYPEPTIDES AND USES FOR TREATING AND PREVENTING GASTROINTESTINAL CONDITIONS” (SHIRE-NPS PHARMACEUTICALS, INC., priority 2018, published 2021).
# T1: human GLP-2R (human, UniProt O95838 1-553)
# T1 sequence (looked up): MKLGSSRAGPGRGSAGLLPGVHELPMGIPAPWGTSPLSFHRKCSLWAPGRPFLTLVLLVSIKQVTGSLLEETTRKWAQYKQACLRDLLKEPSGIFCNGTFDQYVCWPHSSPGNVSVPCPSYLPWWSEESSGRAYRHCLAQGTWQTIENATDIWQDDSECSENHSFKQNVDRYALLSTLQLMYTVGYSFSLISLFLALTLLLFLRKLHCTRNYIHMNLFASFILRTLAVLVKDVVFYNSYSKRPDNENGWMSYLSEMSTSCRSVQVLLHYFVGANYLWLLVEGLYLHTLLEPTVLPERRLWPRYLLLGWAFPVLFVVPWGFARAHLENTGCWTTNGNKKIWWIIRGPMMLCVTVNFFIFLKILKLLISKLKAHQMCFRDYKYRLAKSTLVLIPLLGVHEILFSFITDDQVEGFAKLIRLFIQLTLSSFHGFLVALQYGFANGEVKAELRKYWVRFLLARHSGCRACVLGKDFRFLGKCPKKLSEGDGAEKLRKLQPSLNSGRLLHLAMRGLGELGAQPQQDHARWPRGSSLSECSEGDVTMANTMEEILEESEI
# T2: human GLP-2R (Homo sapiens, UniProt O95838)
# T2 construct: host or cells: CHO-K1
# T2 sequence (O95838 1-553): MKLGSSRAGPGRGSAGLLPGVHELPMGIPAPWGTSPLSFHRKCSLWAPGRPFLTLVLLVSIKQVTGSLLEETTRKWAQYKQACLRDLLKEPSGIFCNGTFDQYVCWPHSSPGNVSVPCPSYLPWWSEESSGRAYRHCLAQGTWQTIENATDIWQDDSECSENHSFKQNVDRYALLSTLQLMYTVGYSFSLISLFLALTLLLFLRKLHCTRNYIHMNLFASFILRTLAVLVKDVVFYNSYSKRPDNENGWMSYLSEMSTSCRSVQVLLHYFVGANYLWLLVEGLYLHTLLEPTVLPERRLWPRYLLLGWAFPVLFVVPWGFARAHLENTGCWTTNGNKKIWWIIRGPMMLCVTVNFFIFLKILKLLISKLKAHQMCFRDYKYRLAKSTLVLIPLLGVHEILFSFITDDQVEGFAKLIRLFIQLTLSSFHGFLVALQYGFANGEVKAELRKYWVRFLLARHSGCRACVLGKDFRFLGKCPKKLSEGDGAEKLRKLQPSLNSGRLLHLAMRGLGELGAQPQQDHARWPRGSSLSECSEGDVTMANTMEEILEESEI
# Key:
# human GLP-2R (human) = human GLP-2R (human) (UniProt O95838); experiment: cell-based or functional assay
# human GLP-2R [1] = biological target: T1, human GLP-2R; experiment: cell-based or functional assay
# human GLP-2R [2] = biological target: T2, human GLP-2R; experiment: cAMP Hunter eXpress GLP2R CHO-K1 GPCR assay (agonist activity, cAMP); type: cell-based; conditions: CHO-K1 cell line overexpressing human GLP-2R, sigmoidal curve fitting
# Description: The EC50 of GLP-2 peptibodies was assayed in vitro using the cAMP Hunter™ eXpress GLP2R CHO-K1 GPCR assay from DiscoverX. The cAMP Hunter™ assay is based on enzyme fragment complementation (EFC). In EFC assay, the enzyme donor is fused to cAMP. Increased intracellular cAMP due to GLP-2R activation competes with ED-cAMP for antibody. Unbound ED-cAMP complements the enzyme acceptor to form active beta galactosidase, which subsequently produces a luminescent signal. The CHO-K1 cell line used is overexpressing human GLP-2R (Genbank accession number NM004246.1). Following cell lysis, agonist activities of the GLP-2 peptibodies were assayed via measurement of the concentration of cAMP.
# [3] = SEC-MALS assay (protein stability analysis); type: physicochemical
# Description: A SEC-MALS assay was performed to determine the primary state (main peak) and its molecular weight. The GLP-2 peptibody A has the amino acid sequence set forth in SEQ ID NO: 1. The GLP-2 peptibody B has the amino acid sequence set forth in SEQ ID NO: 4. The GLP-2 peptibody C has the amino acid sequence set forth in SEQ ID NO: 7. The GLP-2 peptibody D has the amino acid sequence set forth in SEQ ID NO: 10.
molecule,measurement,setting,value
GLP-2 peptibody A (Fc fusion) HGDGSFSDEMNTILDNLAARDFINWLIQTKITDGSAGSAAGSGEF[human IgG1 Fc with changes not listed],"EC50 (nM), cAMP Hunter eXpress GLP2R CHO-K1 GPCR assay",human GLP-2R (human),4.79 nM
GLP-2 peptibody B (Fc fusion) HGDGSFSDEMNTILDNLAARDFINWLIQTKITDAPAPAPAPAPAPAPAPAPAP[human IgG1 Fc with changes not listed],"EC50 (nM), cAMP Hunter eXpress GLP2R CHO-K1 GPCR assay",human GLP-2R [1],0.76 nM
GLP-2 peptibody C (Fc fusion) HGDGSFSDEMNTILDNLAARDFINWLIQTKITDAEAAAKEAAAKEAAAKALEAEAAAKEAAAKEAAAKA[human IgG1 Fc with changes not listed],"EC50 (nM), cAMP Hunter eXpress GLP2R CHO-K1 GPCR assay",human GLP-2R [1],1.48 nM
GLP-2 peptibody D (Fc fusion) HGDGSFSDEMNTILDNLAARDFINWLIQTKITDRGGGGSGGGGSGGGGS[human IgG1 Fc with changes not listed],"EC50 (nM), cAMP Hunter eXpress GLP2R CHO-K1 GPCR assay",human GLP-2R [1],4.07 nM
"GLP-2 peptibody A: GLP-2[A2G]-linker GSAGSAAGSGEF-IgG1(LALA) Fc fusion having the amino acid sequence of SEQ ID NO: 1 (protein, listed as Homo sapiens) HGDGSFSDEMNTILDNLAARDFINWLIQTKITDGSAGSAAGSGEF[human IgG1 Fc with changes not listed]",EC50,human GLP-2R [2],4.79 nM
same,SEC-MALS HMW,[3]; high molecular weight fraction,3% HMW
same,SEC-MALS Main Peak,[3]; main peak fraction,74.7% Main Peak
same,SEC-MALS Tailing Peak,[3]; tailing peak fraction,17.3% Tailing Peak
